Assay results reported in publication PMC6054203.
Results are given in words; binding and its absence hold for the method and conditions named. Sequences can lack the tags named with a protein.

Experiments:
Assay in all cases: two-hybrid; yeast strain AH109 co-transformed with AD (pGAD.GH) and BD (pGBT9.BS) fusions; growth on SC-LWH and on SC-LWH with 0.5 and 3.0 mM 3-AT
[1] = biological target: T1, CIPK4, two-hybrid fusion (Arabidopsis) (UniProt Q9SUL7)
T1 sequence: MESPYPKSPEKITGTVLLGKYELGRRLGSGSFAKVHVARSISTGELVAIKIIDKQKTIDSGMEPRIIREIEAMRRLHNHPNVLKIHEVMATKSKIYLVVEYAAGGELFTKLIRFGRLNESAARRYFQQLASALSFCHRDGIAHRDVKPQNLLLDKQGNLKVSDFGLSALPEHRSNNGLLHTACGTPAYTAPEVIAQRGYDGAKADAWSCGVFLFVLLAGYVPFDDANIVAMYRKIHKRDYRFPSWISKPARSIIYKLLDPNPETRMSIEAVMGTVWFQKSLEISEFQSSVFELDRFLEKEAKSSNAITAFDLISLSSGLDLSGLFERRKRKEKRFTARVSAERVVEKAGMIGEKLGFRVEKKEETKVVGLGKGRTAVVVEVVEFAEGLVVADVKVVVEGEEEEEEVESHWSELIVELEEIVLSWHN

[2] = biological target: T2, CIPK3, two-hybrid fusion (Arabidopsis) (UniProt Q2V452)
T2 sequence: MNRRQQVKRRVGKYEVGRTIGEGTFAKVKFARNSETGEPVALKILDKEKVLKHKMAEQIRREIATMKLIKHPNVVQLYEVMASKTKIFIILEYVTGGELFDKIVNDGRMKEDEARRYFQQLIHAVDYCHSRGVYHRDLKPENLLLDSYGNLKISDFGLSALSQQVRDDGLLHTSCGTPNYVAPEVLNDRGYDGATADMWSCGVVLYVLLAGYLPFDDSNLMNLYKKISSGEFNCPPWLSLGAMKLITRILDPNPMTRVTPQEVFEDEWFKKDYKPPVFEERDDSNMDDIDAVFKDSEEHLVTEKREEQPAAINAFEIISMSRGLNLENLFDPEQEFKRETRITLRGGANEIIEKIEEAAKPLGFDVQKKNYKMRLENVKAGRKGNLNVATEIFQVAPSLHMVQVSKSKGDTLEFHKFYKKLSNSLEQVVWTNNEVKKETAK

[3] = biological target: T3, CIPK7, two-hybrid fusion (Arabidopsis) (UniProt Q9XIW0)
T3 sequence: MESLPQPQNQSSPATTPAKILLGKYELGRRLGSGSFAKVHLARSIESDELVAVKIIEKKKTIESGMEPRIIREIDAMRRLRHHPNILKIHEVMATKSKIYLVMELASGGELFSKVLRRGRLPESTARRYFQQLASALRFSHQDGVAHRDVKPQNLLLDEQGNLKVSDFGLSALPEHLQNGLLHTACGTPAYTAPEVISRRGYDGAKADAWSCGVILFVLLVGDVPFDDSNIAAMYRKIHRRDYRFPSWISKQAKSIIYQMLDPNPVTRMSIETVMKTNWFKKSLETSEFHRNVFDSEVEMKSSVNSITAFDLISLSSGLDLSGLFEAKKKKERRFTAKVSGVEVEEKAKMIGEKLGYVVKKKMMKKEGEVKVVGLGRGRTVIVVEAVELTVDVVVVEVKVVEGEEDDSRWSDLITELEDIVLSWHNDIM

[4] = biological target: T4, CIPK12, two-hybrid fusion (Arabidopsis) (UniProt Q9SN43)
T4 sequence: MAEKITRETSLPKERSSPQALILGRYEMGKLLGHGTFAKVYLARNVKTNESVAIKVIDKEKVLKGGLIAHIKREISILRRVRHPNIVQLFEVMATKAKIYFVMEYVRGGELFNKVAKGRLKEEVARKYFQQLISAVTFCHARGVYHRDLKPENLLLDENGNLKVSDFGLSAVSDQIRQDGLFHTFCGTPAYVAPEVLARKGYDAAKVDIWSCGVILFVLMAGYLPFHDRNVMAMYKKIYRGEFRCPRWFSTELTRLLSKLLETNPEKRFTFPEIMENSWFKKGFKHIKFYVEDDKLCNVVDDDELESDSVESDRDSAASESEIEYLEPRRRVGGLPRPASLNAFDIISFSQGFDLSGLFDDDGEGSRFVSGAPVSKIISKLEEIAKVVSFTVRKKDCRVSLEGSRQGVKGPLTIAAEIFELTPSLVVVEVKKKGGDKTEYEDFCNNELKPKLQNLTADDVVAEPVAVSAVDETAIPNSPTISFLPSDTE

[5] = biological target: T5, CIPK13, two-hybrid fusion (Arabidopsis) (UniProt O22971)
T5 sequence: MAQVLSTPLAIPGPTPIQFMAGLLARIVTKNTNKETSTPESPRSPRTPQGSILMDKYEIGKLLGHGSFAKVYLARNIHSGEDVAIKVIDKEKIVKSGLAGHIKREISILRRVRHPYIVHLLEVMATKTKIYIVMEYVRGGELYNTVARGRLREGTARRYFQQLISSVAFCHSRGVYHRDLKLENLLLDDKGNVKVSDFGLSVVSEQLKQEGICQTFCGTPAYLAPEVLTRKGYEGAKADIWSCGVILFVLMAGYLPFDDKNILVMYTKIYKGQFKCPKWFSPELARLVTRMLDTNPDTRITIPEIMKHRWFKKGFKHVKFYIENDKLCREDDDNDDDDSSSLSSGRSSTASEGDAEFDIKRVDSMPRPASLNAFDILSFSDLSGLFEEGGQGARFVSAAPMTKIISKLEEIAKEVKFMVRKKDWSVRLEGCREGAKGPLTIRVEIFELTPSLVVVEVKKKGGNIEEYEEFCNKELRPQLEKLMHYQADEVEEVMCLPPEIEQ

Measured: binding

B1: AP2C1 (protein phosphatase 2C), two-hybrid fusion (enzyme, UniProt O80871 1-396)
chain: MSCSVAVCNSPVFSPSSSLFCNKSSILSSPQESLSLTLSHRKPQTSSPSSPSTTVSSPKSPFRLRFQKPPSGFAPGPLSFGSESVSASSPPGGVLKRKRPTRLDIPIGVAGFVAPISSSAAVAATPREECREVEREGDGYSVYCKRGRREAMEDRFSAITNLHGDRKQAIFGVYDGHGGVKAAEFAAKNLDKNIVEEVVGKRDESEIAEAVKHGYLATDASFLKEEDVKGGSCCVTALVNEGNLVVSNAGDCRAVMSVGGVAKALSSDHRPSRDDERKRIETTGGYVDTFHGVWRIQGSLAVSRGIGDAQLKKWVIAEPETKISRIEHDHEFLILASDGLWDKVSNQEAVDIARPLCLGTEKPLLLAACKKLVDLSASRGSSDDISVMLIPLRQFI
no binding: all assays above
